Assay results from paper PMC6919601, “Identification of Plasmodium dipeptidyl aminopeptidase allosteric inhibitors by high throughput screening” (PLoS ONE, 2019).
Values joined by “and” are separate entries in the source; they are usually repeats but may differ in a detail not shown here. Identical values can stand only once. The campaign covered roughly 110,000 compounds. About 230 (0.21%) showed an effect of 50% or more. The list shows a part of the results.

Biological target: DPAP1 (Plasmodium falciparum, UniProt Q8IIJ9)
Experiment: primary screen, percent inhibition; read by cleavage of a fluorogenic dipeptide substrate; higher = more effect of the substance
Set-up: species or system P. falciparum D10 trophozoite lysates; single well
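Also: 30 min substrate incubation versus DMSO and 10 µM JCP410 controls.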

Sequence of DPAP1 (Q8IIJ9 whole entry, looked up): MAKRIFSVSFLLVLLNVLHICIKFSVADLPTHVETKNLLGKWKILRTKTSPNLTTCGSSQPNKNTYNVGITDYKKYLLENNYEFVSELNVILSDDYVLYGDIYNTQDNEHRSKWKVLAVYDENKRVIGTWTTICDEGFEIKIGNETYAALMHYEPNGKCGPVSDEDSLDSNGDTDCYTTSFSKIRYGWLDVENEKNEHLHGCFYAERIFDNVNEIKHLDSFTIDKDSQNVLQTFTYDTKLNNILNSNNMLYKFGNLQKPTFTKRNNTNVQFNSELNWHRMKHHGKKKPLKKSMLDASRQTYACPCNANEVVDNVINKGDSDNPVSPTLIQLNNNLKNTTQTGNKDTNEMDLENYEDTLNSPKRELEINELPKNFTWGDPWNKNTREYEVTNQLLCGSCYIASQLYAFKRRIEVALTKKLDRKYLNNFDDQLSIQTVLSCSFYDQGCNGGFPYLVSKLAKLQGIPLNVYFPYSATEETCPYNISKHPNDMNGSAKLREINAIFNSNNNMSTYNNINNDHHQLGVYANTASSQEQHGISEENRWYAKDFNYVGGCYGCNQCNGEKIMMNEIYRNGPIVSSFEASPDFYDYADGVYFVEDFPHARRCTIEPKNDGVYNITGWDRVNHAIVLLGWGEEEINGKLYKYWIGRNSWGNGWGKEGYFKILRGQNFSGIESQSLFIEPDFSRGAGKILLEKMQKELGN

Row | SMILES | % Inhibition @ 10 uM
1 | COc1ccccc1N1CCN(C(=O)CN(Cc2ccccc2)S(C)(=O)=O)CC1 | 1.59%
2 | Cc1cc(=O)oc2c(C)c3occ(-c4ccc(F)cc4)c3cc12 | -1.15%
3 | Cc1ccc(C(=O)Nc2ccc(S(=O)(=O)N3CCCCCC3)cc2)cc1 | -4.82%
4 | CC(C)(C)c1cc(C(=O)NCCN2CCCC2)cc(C(C)(C)C)c1 | -0.0619%
5 | COc1ccc(C2CC(c3ccc(Cl)cc3)=NN2c2ccccc2F)c(OC)c1 (stereo not shown) | -0.999%
6 | O=C(NCc1ccccc1Cl)C(NS(=O)(=O)c1cccs1)c1ccccc1 (stereo not shown) | -1.28%
7 | CCc1ccc(C2=CC(c3ccccc3Cl)n3ncnc3N2)cc1 (stereo not shown) | 0.0842%
8 | Cc1cc(C)c(-n2cccc2CNC2CCCCC2)c(C)c1 | 1.29% and -2.42%
9 | COC(=O)c1c(N2C(N)=C(C#N)C(c3ccccc3)C3=C2CCCC3=O)sc2c1CCCC2 (stereo not shown) | 1.13%
10 | COc1ccc(C(C)=O)cc1N1C(=O)C2C3C=CC(C3=C(C)C)C2C1=O (stereo not shown) | 2.38%
11 | COc1cc2c(C(=O)NCCN3CCOCC3)cn(CC(C)C)c(=O)c2cc1OC | 0.505%
12 | CCOc1ccc(-c2nn3c(-c4ccccc4)nnc3s2)cc1 | 0.0539%
13 | O=C(C1=C(O)C(=O)N(CCOCCO)C1c1ccc(Cl)cc1Cl)c1ccccc1 (stereo not shown) | -2.03%
14 | CCCNC(=O)c1cnn(-c2ccccc2)c1C1CCNCC1 | 6.57%
15 | N#Cc1c(NC(=O)C2CC2)sc2c1CCCC2 | 5.58%
16 | C=CCn1c(CNC(=O)c2ccc(F)cc2)nc2ccccc21 | -0.972%
17 | CCOC(=O)N1CCC(NC2CCCCC2C)CC1 (stereo not shown) | 3.48%
18 | OCCNc1nc(O)c2c(n1)-c1ccccc1CC21CCCC1 | -3.77%
19 | CCSCCOC(=O)C1=C(C)NC(=O)CC1c1c(F)cccc1Cl (stereo not shown) | 1.97%
20 | CCc1nn(CC(=O)N(C)Cc2ccccc2)c(=O)c2cc3occc3n12 | -5.63%
21 | CCOC(=O)c1c(NC(=O)CO/N=C/c2ccc(OC)cc2)sc2c1CCCC2 | 1.97%
22 | CCCN1CCC(N2CCCC(C(=O)N(CC)CC)C2)CC1 (stereo not shown) | -0.0908%

Row | SMILES | % Inhibition @ 10 uM
23 | Cn1cc(CCCC(=O)N2CCCC2)c2ccccc21 | 3.17%
24 | COc1cccc(C2C(C(=O)c3ccc4c(c3)OCCO4)=C(O)C(=O)N2CC2CCCO2)c1 (stereo not shown) | -0.0619%
25 | Cc1ccccc1OCC(=O)Nc1ccc2c(c1)OCO2 | 2.5%
26 | N#Cc1nc(/C=C/c2ccc(F)cc2)oc1NCc1ccccc1 | -4.39%
27 | C=CCNc1nc(N)c(C(=O)C23CC4CC(CC(C4)C2)C3)s1 | 0.726%
28 | CC(C(=O)O)n1nc(-c2ccccc2)c2cc(Cl)ccc21 (stereo not shown) | 3.24%
29 | COC(=O)c1sc(NC(=O)COc2ccc(C)cc2)nc1C | -5.63%
30 | CCN1CCN(CC(O)COc2ccc(C)cc2C)CC1 (stereo not shown) | 0.823%
31 | CCOc1ccccc1C1C(C#N)=C(N)Nc2onc(-c3ccccc3)c21 (stereo not shown) | 0.317%
32 | COc1ccccc1-c1c(C)nn2c(O)cc(Cc3ccccc3)nc12 | -2.83%
33 | CCCC1CCC(C2=N/C(=C/c3cc(OC)c(OC)c(OC)c3)C(=O)O2)CC1 (stereo not shown) | 1.81%
34 | CCOc1ccc(Cc2onc3c2C(=O)CC(C)(C)C3)cc1OCC | -2.19%
35 | Cc1[nH]nc2c1C(c1ccc3c(c1)OCO3)C(C#N)=C(N)O2 (stereo not shown) | 2.38%
36 | CN(C)CC(=O)N1CCc2ccccc2C(c2ccccc2)C1 (stereo not shown) | -3.06%
37 | c1ccc2c(OCc3nc4c5c6c(sc5ncn4n3)CCCC6)cccc2c1 | -3.28%
38 | CCOCCn1cnc2sc(C(=O)N3CCC4(CC3)OCCO4)c(C)c2c1=O | 1.2%
39 | CCc1ccc(NC(=O)c2ccc(Cl)c([N+](=O)[O-])c2)cc1 | 1.91%
40 | CON(C)c1nc(OCCNC(=O)COc2ccc(Cl)cc2C)nc(N(C)C)n1 | -3.02%
41 | COc1ccc(OC)c(CNC(=O)c2cc3cc4cc(OC)ccc4nc3s2)c1 | 4.1%
42 | O=C(NC1(C(F)(F)F)C(=O)Nc2c1c(=O)[nH]c(=O)n2-c1ccccc1F)c1ccncc1 (stereo not shown) | -4.26%
43 | Cc1cnn(-c2cc(Oc3ccccc3)ncn2)c1 | -3.19%
44 | Cc1ccc2c(c1)c1c(n2CCC#N)C(=O)CCC1 | -3.65%

Row | SMILES | % Inhibition @ 10 uM
45 | NC(=O)C1CCN(c2cnnc3c(Cl)cccc23)CC1 | -1.42%
46 | CCOC(=O)N1CCN(C(=O)C2CC(c3ccc(F)cc3)=NO2)CC1 (stereo not shown) | 2.85%
47 | Cc1nn(-c2ccccc2)c(C)c1/C=N/n1cnnc1S | 21.5%
48 | CC(C)C[C@H](NC(=O)c1ccc(-c2csc(Nc3ccncc3)n2)cc1)C(=O)NCCN1CCOCC1 | -1.41%
49 | Cc1c(O)nc(Nc2nc(C)c3ccccc3n2)nc1O | 2.3%
50 | COc1cccc(C2=N/C(=C\c3ccc(Cl)cc3Cl)C(=O)O2)c1 | -5.03%
51 | Brc1cc2c(cc1CN1CCc3ccccc3C1)OCO2 | 5.45%
52 | Cc1ccc2c(CNCc3ccccc3C)c(C(=O)O)n(Cc3ccccc3F)c2c1 | 6.57%
53 | O=C(c1ccc(S(=O)(=O)N2CCOCC2)cc1)N1CCN(Cc2ccc3c(c2)OCO3)CC1 | 1.02%
54 | CCOc1ccc2sc(/C(C)=N/CCc3ccccc3)c(O)c2c1 | -3.9%
55 | Cc1ccc2[nH]cc(C3CCCCC3=O)c2c1 (stereo not shown) | -7.16%
56 | CC1CCCN(C(=O)c2cccc(Cl)c2)C1 (stereo not shown) | -5.2%
57 | O=C(NCCCN1CCOCC1)c1cc(-c2ccc3c(c2)OCO3)nc2ccccc12 | 2.32%
58 | Clc1nc(-c2ccccc2)cc(-c2cnc(N3CCCCC3)nc2N2CCCCC2)n1 | -1.5%
59 | Cc1cc(C)c2nc(N3CCCC(C(=O)NCCCN4CCOCC4)C3)sc2c1 (stereo not shown) | -3.35%
60 | CN(C)CCCN1Cc2ccccc2Sc2ccccc21 | -2.29%
61 | O=C(NCc1ccc2c(c1)OCO2)c1ccc2c(Cl)c3c(nc2c1)CCCC3 | 2.23%
62 | COc1cccc(C2CC(=O)Nc3c2c(O)nc2ncnn32)c1 (stereo not shown) | -0.222%
63 | CCOc1ccc(/C=C2/SC(=O)N(C(C)CC)C2=O)cc1OC (stereo not shown) | -1.44%
64 | CCN1CCN(C2=NC(=O)/C(=C/c3ccc(OC)cc3OC)S2)CC1 | -3.41%
